Measured values reported in PubChem BioAssay (NCI).
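Assay format: 96-well plates, 48-hour exposure. TGI denotes the concentration required for complete inhibition of growth.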 A number of entries come with more than one value. Only these are listed. An entry can have further records. A record mostly stands for its own series of concentrations, which the source does not state; some values may only mark the edge of a range.

System: MDA-MB-468 breast
Experiment: NCI tumour cell line growth inhibition, 48 h

COc1cc2c(c(O)c1Cl)C(=O)c1c(O)cc(C[C@H](C)O)cc1[C@H]2[C@H]1c2cc(C[C@H](C)O)cc(O)c2C(=O)c2c1cc(OC)c(Cl)c2O was tested, and the TGI was 5.25 µM and 61.7 µM.
